Sequences with one replicate were seen in a single cluster, so their values are uncertain.
tested on: ATP; assay: switch fluorescence ratio, 500 uM ATP over buffer (Cy3 cluster intensity, sum of 5 cycles each) (fold (ratio)); higher = stronger signal-on switching upon ATP binding; sequences stand for … in TCGTCGGCAGCGTCAGATGTGTATAAGAGACAGTTTTTTTTTTTTTTTTTTTTTTTTT…TC; settings: aptamer strand: ATP DNA aptamer (quencher-CACCTGGGGGAGTATTGCGGAGGAAGG + anchor), 100 nM annealed; ATP concentration: 500 uM; one replicate
How it was run: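 Between each of five buffer/ATP cycles, the flow-cell was stripped with NaOH and re-annealed. Each cycle imaged Cy3-labelled switching-strand clusters, annealed to 100 nM quencher-labelled ATP aptamer on a modified Illumina MiSeq flow-cell, first in selection buffer and then after 15 min with 500 uM ATP at 22 °C. The fluorescence ratio is summed target-cycle over summed buffer-cycle Cy3 intensity per cluster, averaged per switch-domain sequence, with clusters outside 100-1000 RFU excluded.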
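Further: ATP exposure 15 min at 22 °C before imaging.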

| Sequence | switch fluorescence ratio |
| --- | --- |
| GTAAGACCAG | 0.931 |
| TATGTGGCCC | 0.974 |
| CGTTCGTACT | 0.976 |
| GAGAGTTCGA | 1.01 |
| AGCTTACACA | 1.07 |
| AAGTTTACAA | 1.01 |
| TGTAGTCAAC | 2.29 |
| TCCAGAACTC | 1.07 |
| CATTAAGGCC | 1 |
| TCACGCTAGT | 1.07 |
| CCAAAAGTAG | 1.08 |
| CGGGTATCAT | 1 |
| TTTCAGTAA | 1.28 |
| CACTGTT | 1.09 |
| CGGAACGATT | 1.04 |
| CAGGTCCGTT | 0.963 |
| TAACGAGTCA | 1.04 |
| GGTTTCAGAA | 0.972 |
| ATGGTCGACG | 1.02 |
| ACTTAAAGGG | 1.02 |
| ATTCTAGTTC | 1.07 |
| GATCTCATCG | 1.03 |
| CCCTGCCTCT | 1.06 |

| Sequence | switch fluorescence ratio |
| --- | --- |
| AGAAAAGTAT | 0.98 |
| AAAGGGGATA | 1.09 |
| GGAAACAGCA | 1.03 |
| GAAGGGTGG | 0.953 |
| AGATATGCGG | 1.11 |
| ATATTTCGGG | 1.05 |
| ATACCACTGA | 1.04 |
| GCCCCGTGGG | 1.02 |
| TAGAATCGT | 0.983 |
| CTTGTCAAGG | 1.04 |
| TTGTCGTAGC | 0.954 |
| CCAGCCGTAG | 1.02 |
| ATCGGAGTAC | 0.994 |
| CCAAGGAAGC | 1.14 |
| GGGTCGGGCA | 1 |
| TTACGAACGG | 1.48 |
| GGTGCTCGGG | 0.987 |
| TGTGGTTGGC | 0.984 |
| GACAACGGGA | 1.09 |
| CCATATCTAG | 1.02 |
| AAGACACGTA | 1.14 |
| GTATTACGT | 0.958 |
| GGTGGTCGG | 0.95 |

| Sequence | switch fluorescence ratio |
| --- | --- |
| CAAAAAGTTC | 1.02 |
| AACGAGAGGT | 1.05 |
| CGAAAGTGGT | 0.999 |
| CCAGCCACAG | 1.04 |
| CACGTAATAT | 1.79 |
| CGGACTTATA | 1.05 |
| ATCAGAGTTA | 1.04 |
| ATGACGTACT | 0.901 |
| GGTCACATG | 1.01 |
| AAACGTGTTA | 1.03 |
| GGAGACTGTT | 1.06 |
| GTTCGACGGT | 1.02 |
| CCGACTCTTG | 1.04 |
| AATTTCGACC | 1.05 |
| ATCATTAGCT | 1.04 |
| GAACGATCAC | 1.4 |
| GATAGCTCGG | 0.991 |
| ACTGAGTACG | 1.18 |
| AATGTCGTTT | 1.02 |
| CACTGTGGGG | 0.992 |
| CCAGCTTTCG | 1.09 |
| AACTTGTTAT | 0.989 |
| TGTCATAGCG | 0.997 |

| Sequence | switch fluorescence ratio |
| --- | --- |
| CGTTTGCCGC | 1.19 |
| CCAGATTTTC | 1.01 |
| CTCTATAATG | 1.02 |
| AAATGCGGGA | 1.02 |
| AGGATGGCTC | 0.981 |
| AGGTTACGGA | 0.97 |
| CAAAGCTTCA | 1.57 |
| TGTCCTTCTT | 1.03 |
| GGGTGACGCA | 1.02 |
| GCCTCGATCA | 1.04 |
| TTCACGAAGC | 1.08 |
| CCATAGGACG | 0.999 |
| TAACCGGAGC | 1.53 |
| TGTATTAGGA | 0.969 |
| GTGGTAGGAC | 1.04 |
| TGTTGAGGAT | 0.997 |
| TTCGCTGTA | 1.07 |
| CGTTGCTTG | 1 |
| GCTACCGCCG | 1.2 |
| GTGGTGAGTC | 0.948 |
| TTCATGACAA | 1.09 |
| GATGGAGGGT | 1.06 |
| TCGGGACGGA | 1.01 |

| Sequence | switch fluorescence ratio |
| --- | --- |
| TCGGACATTA | 0.983 |
| CTTATCCCTT | 0.993 |
| CTACAAGTTG | 0.988 |
| TCTCGTTACT | 1.06 |
| ACGTGGCAGG | 1.03 |
| AACCGACCAA | 2.78 |
| GGAATTAAGT | 1.02 |
| GAATGCAGGG | 0.959 |
| AGCCGAAGCC | 1.21 |
| TCTGCAGACT | 1.17 |
| GTCAGGGGT | 1.11 |
| ACAGAATATT | 1.02 |
| AAGGTGCTC | 1.19 |
| GATCTACTGG | 0.984 |
| TAACCGAGTT | 1.11 |
| ACTACATACT | 1.51 |
| GCTGGGTGGC | 0.939 |
| CAGGTCCAGA | 0.959 |
| CATGAAACCT | 1.15 |
| TGAAGTGGTG | 1.01 |
| TTAATAAGCC | 0.983 |
| GACGCATTGA | 3.09 |
| TCACTTCATT | 1.02 |

| Sequence | switch fluorescence ratio |
| --- | --- |
| CTAGCTAGCG | 0.989 |
| CCAAAAGCGG | 1.04 |
| ATTGTTCA | 1 |
| CAGGGCAACT | 0.993 |
| TGGTATCTGC | 0.955 |
| TTATCCGGGC | 1.22 |
| ACAAGCGTGT | 0.942 |
| GGTTATTCAG | 0.978 |
| CTGGCGGGAT | 1.03 |
| CCTTGTTTCG | 1.07 |
| GGCACAGTGG | 0.988 |
| TCGGGAAGTT | 1.04 |
| TACGTTCCAG | 1.03 |
| ATGTAGGTGT | 1.1 |
| TTGAGTTTCT | 0.957 |
| ATGCCTCCC | 1.14 |
| GTCCTGCGGT | 0.997 |
| CAGGAACTGG | 0.998 |
| CGTATGGCGG | 1.01 |
| GCATCTGGAA | 1.12 |
| TTTCTAGTGT | 0.98 |
| CCCCCCACA | 2.28 |
| AACCTAGGAC | 1.05 |

| Sequence | switch fluorescence ratio |
| --- | --- |
| GGTTGTCGT | 1.09 |
| GCGGTTATCT | 1 |
| TAGGCGGAC | 1.05 |
| GGGACCGTCT | 0.976 |
| ACGTCCTAAT | 1.02 |
| GGTCCTTAGA | 0.98 |
| ATTAGCGGTT | 0.996 |
| TGGGGGTCAA | 1.04 |
| TGAGGAGACG | 1.03 |
| ATGGCGAACT | 0.976 |
| TAGGGCTTCA | 1.03 |
| GTGCTTTATG | 1 |
| TGGTGAAAG | 0.966 |
| GCGGCACCGG | 0.963 |
| CGGAAAGCCA | 1 |
| ATAAAGATTG | 0.971 |
| CTTCCCGTTT | 1.26 |
| GTTTTCGTGC | 0.987 |
| TTATCGAGCA | 0.945 |

— the supplement of paper PMC10126150
